# Paper PMC12040169 (PLOS Biology, 2025)
# The other results are listed elsewhere or left out.
# System: T1, C. trachomatis L2/434/Bu expressing GFP (CTL2-GFP)
# T1 construct: L2/434/Bu GFP intracellular growth in HeLa cells
# Set-up: species or system HeLa; C. trachomatis total inclusion area by high-content imaging, normalised to DMSO
# Conditions: total inclusion area; 28.5 h, 10 µM; inhibitor
# Method in brief: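 Post-fluorescence-read fixation, DNA staining with Hoechst and high-content imaging; GFP inclusion area and number per well, and nuclei counts, used as proxies for bacterial growth and host viability.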
row,SMILES,% of control remaining
1,COc1ccc(CC(=O)Nc2ccc(OCC(=O)O)cc2)cc1 [CBK264244],92.8996
2,CCCCN(C)c1c(C)nc2c(OCC(=O)c3ccc(F)cc3)cccn12 [CBK147172],130.886
3,COc1ccc(-c2noc([C@@H]3C[C@H](NC(=O)c4ccc(F)cc4)CN3C)n2)cc1 [CBK288861],107.337
4,O=C(c1ccsc1NS(=O)(=O)c1ccc2ccccc2c1)N1CCOCC1 [CBK042278],98.6532
5,O=c1[nH]n(-c2ccccc2)c(=O)n1Cc1ccccc1F [CBK122770],118.01
6,C=CCc1cccc(Cl)c1OCCN1CCN(C)CC1 [CBK269734C],85.902
7,CCOC(=O)C1CN(C(=O)N(CCN)Cc2ccc(Cl)cc2)CC1c1ccccc1 (stereo not drawn) [CBK001682C],84.3075
8,O=C(CSc1ncn(-c2ccccc2)n1)Nc1ccccc1Cl [CBK265593],101.584
9,CCn1ccnc1CN1CCOC(Cc2ccccc2Cl)C1 (stereo not drawn) [CBK306625],64.4699
10,COC(=O)N1CC2(CCCCC2NCCC(F)(F)F)c2ccccc21 (stereo not drawn) [CBK083539T],99.9594
11,CC(C)(CC(=O)O)CC(=O)Nc1cc(S(=O)(=O)N2CCCC2)ccc1Cl [CBK296702],120.274
12,O=C(NCc1ccccn1)c1cncc(Br)c1 [CBK265226],78.8311
13,C=CCNc1nccnc1-c1ccc(C(C)=O)s1 [CBK037052],131.003
14,Nc1cc2cccnc2nc1-c1ccncc1 [CBK067601],100.868
15,COC(=O)c1ccc(NS(=O)(=O)c2cccc3cccnc23)cc1 [CBK028694],98.2458
16,C=C(C)CN1CCN(C(=O)c2cc3cccc(OC)c3oc2=O)CC1 [CBK269211],78.8993
17,Nc1ncc(-c2ccoc2)nc1NCc1ccco1 [CBK063652],90.8799
18,Fc1cccc2sc(Nc3nnc(-c4ccco4)o3)nc12 [CBK287480],97.3856
19,Fc1ccc(CNCCN2CCOCC2)cc1 [CBK278192C],72.076
20,COCCNc1nc2c(c(N3CCC(C#N)CC3)n1)CCNCC2 [CBK307706],77.3035
21,CCN1CC2(CCN(CCCCC3NC(=O)NC3=O)CC2)c2ccccc21 (stereo not drawn) [CBK131489],46.2699
22,CCN(Cc1ccncc1)C(=O)NC(C)c1ccccc1 (stereo not drawn) [CBK155156],106.802
23,Cc1cc(C)n2c(SCc3ccccc3)nnc2n1 [CBK025780],90.1222
24,NC(=O)CN1CCC(C(=O)c2ccc(F)cc2)CC1 [CBK149130],104.218
25,COc1ccc(-c2cc(C(=O)NCc3ccc4c(c3)OCO4)cnc2-c2ccccc2)cn1 [CBK037571],101.419
26,c1coc(CNc2cncc(-c3ccc4c(c3)OCO4)n2)c1 [CBK065930],143.221
27,COc1cc(NC(=O)c2cc3c4c(sc3nc2N)CN(C)CC4)c(OC)c(OC)c1 [CBK269597],105.135

row,SMILES,% of control remaining
1,C=CCOC(=O)C1=C(C)N=C2SCCC(=O)N2C1c1ccc(SC)cc1 (stereo not drawn) [CBK073405],80.225
2,Cc1ccsc1CN(Cc1nccn1C)CC(C)O (stereo not drawn) [CBK282976],86.8632
3,Cc1nc2ccccn2c1CN1CCC(N2CCCC2)CC1 [CBK281730],87.0365
4,COc1nccnc1OC1CCN(CCc2ccc(F)cc2)CC1 [CBK084259],103.01
5,CN1CCN(C(=O)c2ccc(NS(=O)(=O)c3ccc(Oc4ccccc4)cc3)cc2)CC1 [CBK034559],82.9106
6,Cc1cccc(C)c1OCC(=O)Nc1c[nH]c(=O)[nH]c1=O [CBK263358],39.6595
7,CC(=O)c1cn(CCC(=O)NC2CCCOC2)c2ccccc12 (stereo not drawn) [CBK282515],110.811
8,CCN(CC)CCn1cc(C2CCCN(C)CC2)c2ccccc21 (stereo not drawn) [CBK023788B],68.9539
9,CC(=O)Nc1ccc(-c2ccc(C(=O)N3CCN(C(=O)c4ccco4)CC3)cn2)cc1 [CBK160186],73.8755
10,Cc1ccccc1-n1c(C)cc(C(=O)CSc2nncn2C)c1C [CBK298330],91.2975
11,Cc1cnn(-c2cc(Oc3ccccc3)ncn2)c1 [CBK287276],87.928
12,CN1CCN(C)C(CNC(=O)c2ccc(-c3ccccc3CO)cc2)C1 (stereo not drawn) [CBK307475],104.19
13,O=C1CC2(CCN(C(=O)C3CCCC3)CC2)Oc2ccc(Cl)cc21 [CBK283625],79.9941
14,O=C(CCc1ccno1)NC(Cc1ccsc1)c1cccnc1 (stereo not drawn) [CBK285395],115.692
15,O=C(Nc1cccc2[nH]ccc12)c1ccc(Br)cc1Cl [CBK159643],76.5642
16,CN(C)c1cccc(C(=O)N2CC[C@@H](c3ccccc3)[C@H](O)C2)c1 [CBK283713],119.812
17,CCOc1ccccc1NC(=O)NC1CC2CCC(C1)N2Cc1ccccc1 (stereo not drawn) [CBK116294],110.413
18,O=C(NCCN1CCC(O)(c2cccc(F)c2)CC1)C1CCCC1 [CBK283285],107.133
19,Cc1cc(NC(=O)c2ccc(Cl)c([N+](=O)[O-])c2)nc2c1c(=O)oc1ccccc12 [CBK291263],104.595
20,O=C(NCc1ccccn1)Nc1cccc(Cl)c1 [CBK058569],40.6477
21,O=C(Cn1cccn1)NC(Cc1ccsc1)c1ccccn1 (stereo not drawn) [CBK285284],79.5193
22,CCNC(=O)C1CCN(Cc2c[nH]nc2-c2ccc(F)cc2)C1 (stereo not drawn) [CBK307438],59.3591
23,CC1CN(c2cc(CO)c(F)cn2)CC2(CCOCC2)O1 (stereo not drawn) [CBK304773],33.276
24,COc1ccc(N2C(=O)CC(Sc3ncccc3C(=O)O)C2=O)cc1 (stereo not drawn) [CBK263387],103.05
25,COC(=O)COc1ccccc1/C=C1\SC(c2ccc(C)cc2)=NC1=O [CBK067741],101.133
26,Cc1cc(C)c2nc(-c3ccccn3)cc(C(=O)Nc3cccc(Cn4cccn4)c3)c2c1 [CBK267723],99.2074
27,CNC(=O)c1ccc(-c2ccc(N3CCOCC3)cc2)nc1NCC1CC1 [CBK106305],93.8945
